This is a selection; strong and weak results do not stand in their true shares. The list includes weakly bound sequences.

Here are results for 40 sequences from paper PMC5700166.

For the test, the target named is T1, GST-Aq-NF-kB (UniProt A9Y5G7).
T1 sequence: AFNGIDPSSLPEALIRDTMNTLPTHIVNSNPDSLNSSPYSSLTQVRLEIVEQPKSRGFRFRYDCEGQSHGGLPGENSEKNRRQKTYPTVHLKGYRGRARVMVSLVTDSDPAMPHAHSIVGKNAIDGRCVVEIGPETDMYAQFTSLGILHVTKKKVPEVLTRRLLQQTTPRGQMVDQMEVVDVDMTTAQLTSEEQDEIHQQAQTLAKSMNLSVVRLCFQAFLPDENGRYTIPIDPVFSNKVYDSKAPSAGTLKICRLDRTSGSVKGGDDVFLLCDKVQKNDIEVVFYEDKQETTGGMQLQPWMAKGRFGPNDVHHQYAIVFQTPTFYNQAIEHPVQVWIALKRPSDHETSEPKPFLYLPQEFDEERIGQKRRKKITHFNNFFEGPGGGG
In words: protein-binding microarray (PBM). The settings on record: PBM: ~300 nM protein, 6 mM HEPES pH 7.8, 80 mM KCl, 0.5 mM EDTA, 0.5 mM EGTA, 6% glycerol, 35 ng/ul poly-dIdC, 1% milk, 1 h, room temperature; Ap Aiptasia and Nv Nematostella (sea anemones) / Co Capsaspora / Aq Amphimedon (sponge) / Dm Drosophila / Hu human; RHD is the Rel homology domain; high values mean tight binding; most listed sequences are background and not binding sites; double strand, one strand shown.
“CCGATTAACATCAGGGGGAGGGATGATGTTAATCGGGTCTTGATTCGCTTGACGCTGCTG”: the binding signal was determined as 4.21 z-score.

For “CCGATTAACATCAGGGAAGAACCTGATGTTAATCGGGTCTTGATTCGCTTGACGCTGCTG”, the binding signal turned out to be 5.54 z-score. “CCGATTAACATCAGGGGAACCTATGATGTTAATCGGGTCTTGATTCGCTTGACGCTGCTG”: the binding signal was 4.46 z-score. “CCGATTAACATCACCCTTTTCCCTGATGTTAATCGGGTCTTGATTCGCTTGACGCTGCTG” gave a binding signal of 2.91 z-score. “CCGATTAACATCACAACGACCCCTGATGTTAATCGGGTCTTGATTCGCTTGACGCTGCTG”: the binding signal amounted to 2.48 z-score. “CCGATTAACATCAAGGGTTTCCCTGATGTTAATCGGGTCTTGATTCGCTTGACGCTGCTG” registered a binding signal of 5.56 z-score. In the case of “CCGATTAACATCAGGGGGATACCTGATGTTAATCGGGTCTTGATTCGCTTGACGCTGCTG” it was 8.7 z-score; in that of “CCGATTAACATCAAAGAAGCCCCTGATGTTAATCGGGTCTTGATTCGCTTGACGCTGCTG”, 5.13 z-score. In the case of “CCGATTAACATCAAATTACCCCCTGATGTTAATCGGGTCTTGATTCGCTTGACGCTGCTG” it was 5.57 z-score; in that of “CCGATTAACATCACGCCCCCCCCTGATGTTAATCGGGTCTTGATTCGCTTGACGCTGCTG”, 4.89 z-score. As for “CCGATTAACATCAAAGCATCCCCTGATGTTAATCGGGTCTTGATTCGCTTGACGCTGCTG”, the binding signal stood at 4.15 z-score. In turn, “CCGATTAACATCAGGGGATGACCTGATGTTAATCGGGTCTTGATTCGCTTGACGCTGCTG” came in with a binding signal of 6.55 z-score. Turning to “CCGATTAACATCAAGGGGGGGACTGATGTTAATCGGGTCTTGATTCGCTTGACGCTGCTG”, the binding signal amounted to 4.98 z-score. Sequence “CCGATTAACATCACGGGAAAATCTGATGTTAATCGGGTCTTGATTCGCTTGACGCTGCTG” returned a binding signal of 5.16 z-score. In the case of “CCGATTAACATCACGGGGGGTACTGATGTTAATCGGGTCTTGATTCGCTTGACGCTGCTG” it was 3.58 z-score; in that of “CCGATTAACATCAGGGAATTTAATGATGTTAATCGGGTCTTGATTCGCTTGACGCTGCTG”, 5.09 z-score. For “CCGATTAACATCACTCCCCCCCCTGATGTTAATCGGGTCTTGATTCGCTTGACGCTGCTG”, the binding signal was 4.65 z-score.

“CCGATTAACATCAGGAAAAAAACTGATGTTAATCGGGTCTTGATTCGCTTGACGCTGCTG”: the binding signal came out at 0.525 z-score. With “CCGATTAACATCAATAACCCCCCTGATGTTAATCGGGTCTTGATTCGCTTGACGCTGCTG” the figure was 6.46 z-score; with “CCGATTAACATCAAATTCCCAACTGATGTTAATCGGGTCTTGATTCGCTTGACGCTGCTG”, 2.22 z-score; with “CCGATTAACATCAGGGGGGTGAATGATGTTAATCGGGTCTTGATTCGCTTGACGCTGCTG”, 4.32 z-score. With “CCGATTAACATCACGAGTTTCCCTGATGTTAATCGGGTCTTGATTCGCTTGACGCTGCTG” the figure was 3.88 z-score; with “CCGATTAACATCACCCTTCCCCCTGATGTTAATCGGGTCTTGATTCGCTTGACGCTGCTG”, 4.32 z-score; with “CCGATTAACATCACATATACCCCTGATGTTAATCGGGTCTTGATTCGCTTGACGCTGCTG”, 2.28 z-score. In the case of “CCGATTAACATCAGGGGGTAACCTGATGTTAATCGGGTCTTGATTCGCTTGACGCTGCTG”, the binding signal was found to be 5.48 z-score. In turn, “CCGATTAACATCAATTTACCCCCTGATGTTAATCGGGTCTTGATTCGCTTGACGCTGCTG” registered a binding signal of 4.56 z-score. Turning to “CCGATTAACATCAAATAATCCCCTGATGTTAATCGGGTCTTGATTCGCTTGACGCTGCTG”, the binding signal amounted to 7.75 z-score. In turn, “CCGATTAACATCAAGCCCCCCCATGATGTTAATCGGGTCTTGATTCGCTTGACGCTGCTG” gave a binding signal of 3.85 z-score. Turning to “CCGATTAACATCAAAGTTTTCCCTGATGTTAATCGGGTCTTGATTCGCTTGACGCTGCTG”, the binding signal was 4.93 z-score. In turn, “CCGATTAACATCAGGACTTCCCATGATGTTAATCGGGTCTTGATTCGCTTGACGCTGCTG” yielded a binding signal of 4.72 z-score.

Sequence “CCGATTAACATCACGGAAATCCCTGATGTTAATCGGGTCTTGATTCGCTTGACGCTGCTG” showed a binding signal of 6.11 z-score. With “CCGATTAACATCAAATCCCCCCTTGATGTTAATCGGGTCTTGATTCGCTTGACGCTGCTG”, the binding signal is 6.8 z-score. Take “CCGATTAACATCAGGGAAAAACCTGATGTTAATCGGGTCTTGATTCGCTTGACGCTGCTG”: the binding signal turned out to be 9.06 z-score.

Turning to “CCGATTAACATCAGAAATACCCATGATGTTAATCGGGTCTTGATTCGCTTGACGCTGCTG”, the binding signal amounted to 4.73 z-score.

For the sequence “CCGATTAACATCAGAATTCCCACTGATGTTAATCGGGTCTTGATTCGCTTGACGCTGCTG”, the binding signal came out at 3.19 z-score. As for “CCGATTAACATCAGGCAGTCCCCTGATGTTAATCGGGTCTTGATTCGCTTGACGCTGCTG”, the binding signal turned out to be 5.52 z-score. The sequence “CCGATTAACATCAAAATGTCCCCTGATGTTAATCGGGTCTTGATTCGCTTGACGCTGCTG” showed a binding signal of 5.89 z-score. On to “CCGATTAACATCAGGGAGGGTAATGATGTTAATCGGGTCTTGATTCGCTTGACGCTGCTG”, for which the binding signal amounted to 2.39 z-score. “CCGATTAACATCACATTATCCCCTGATGTTAATCGGGTCTTGATTCGCTTGACGCTGCTG” displayed a binding signal of 3.81 z-score. With “CCGATTAACATCACGGGAATTCCTGATGTTAATCGGGTCTTGATTCGCTTGACGCTGCTG” the figure was 8.38 z-score.
